Reference: the supplement of paper PMC12217912
The other results are listed elsewhere or left out. The full chains were built here from the parent and the listed change. Inactive controls read about 0.05.

B1: TEV protease; numbered along this chain (parent)
chain: MGESLFKGPRDYNPISSSICHLTNESDGHTTSLYGIGFGPFIITNKHLFRRNNGTLVVQSLHGVFKVKDTTTLQQHLVDGRDMIIIRMPKDFPPFPQKLKFREPQREERICLVTTNFQTKSMSSMVSDTSCTFPSGDGIFWKHWIQTKDGQCGSPLVSTRDGFIVGIHSASNFTNTNNYFTSVPKNFMELLTNQEAQQWVSGWRLNADSVLWGGHKVFMVKPEEPFQPVKEATQL

Variants of: B1
Assay: raw area under fraction-flipped curve 0-4 h after induction (AUC4h, not background-subtracted), DNA-recorder readout of cleavage of the substrate (dimensionless); higher = more cleavage of the substrate by the protease variant
Conditions: temperature: 34 °C; time window: 0-4 h after rhamnose induction
Method: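 In vivo DNA recorder in E. coli TOP10(DE3) ΔrhaA at 34 °C. Each TEVp single-site mutant (parent TEVp 0) is paired with a single-site variant of the 7-mer TEVs (canonical ENLYFQ|S). The substrate sits between flexible linkers in a Bxb1-sfGFP-TEVs-SsrA fusion, so cleavage stabilises Bxb1 and speeds flipping of a recombination array, read by NGS. The value is the raw area under the fraction-flipped curve over 0-4 h after rhamnose induction (AUC4h), with ≥20 reads per time point. It is not background-subtracted; inactive controls average about 0.047.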
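Further: Bxb1 expression induced with 0.2% (w/v) L-rhamnose at OD600 near 0.5, cultures sampled hourly, flipped fraction per protease–substrate barcode pair counted by paired-end Illumina sequencing.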

Variant	area with substrate ENLYAQS	area with substrate ENLYDQS	area with substrate ENLYEQS	area with substrate ENLYGQS	area with substrate ENLYHQS	area with substrate ENLYIQS	area with substrate ENLYKQS	area with substrate ENLYMQS	area with substrate ENLYNQS	area with substrate ENLYPQS	area with substrate ENLYQQS	area with substrate ENLYRQS	area with substrate ENLYSQS	area with substrate ENLYTQS	area with substrate ENLYVQS	area with substrate ENLYWQS	area with substrate ENLYYQS	area with substrate ENLYCQS	area with substrate ENLYLQS
MGESLFKGPRDYNPISSSICHLTNESDGHTTSLYGIGFGPFIITNKHLFRRNNGTLVVQSLHGVFKVKDTTTLQQHLVDGRDMIIIRMPKDFPPFPQKLKFREPQREERICLVTTNFQTKSMGSMVSDTSCTFPSGDGIFWKHWIQTKDGQCGSPLVSTRDGFIVGIHSASNFTNTNNYFTSVPKNFMELLTNQEAQQWVSGWRLNADSVLWGGHKVFMVKPEEPFQPVKEATQL [S123G]	0.0892	0.0565	0.0722	0.0654	0.0621	0.105	0.0697	0.0841	0.0868	0.0867	0.0699	0.0715	0.0674	0.0927	0.131	0.0698	0.0621		
MGESLFKGPRDYNPISSSICHLTNESDGHTTSLYGIGFGPFIITNKHLFRRNNGTLVVQSLHGVFKVKDTTTLQQHLVDGRDMIIIRMPKDFPPFPQKLKFREPQREERICLVTTNFQTKSMSSMVSDTSCTFPSGDGIFWKHWIQTKDGQCGSPLVSTRDGFIVGIHSASNFTNTNNYFTSVPKNFMELLTNQEAQQWVSGWRLNADSVLWGGHKVFMVKPEEPFQPVFEATQL [K230F]	0.0743	0.0736	0.063	0.0629	0.0602		0.051	0.0884	0.0686	0.0622		0.0678	0.0779		0.0832				
MGESLFKGPRDYNPISSSICHLTNESDGHTTSLYGIGFGPFIITNKHLFRRNNGTLVVQSLHGVFKVKDTTTLQQHLVDGRDMIIIRMPKDFPPFPQKLKFREPQREERICLVTTNFQTKSMSSMVSDTSCTFPSGYGIFWKHWIQTKDGQCGSPLVSTRDGFIVGIHSASNFTNTNNYFTSVPKNFMELLTNQEAQQWVSGWRLNADSVLWGGHKVFMVKPEEPFQPVKEATQL [D137Y]	0.0761	0.0626	0.0535	0.0616	0.0651				0.0721		0.0565	0.0651		0.0733					
MGESLFKGPRDYNPISSSICHLTNESDGHTTSLYGIGFGPFIITNKHLFRRNNGTLVVQSLHGVFKVKDTTTLQQHLVDGRDMIIIRMPKDFPPFPQKLKFREPQREERICLVTTNFQTKSMSSMVSDTSCTFPSGDGIFWKHWIQTKDGQCGSPLVSTRDGFIVGIHSASNFTNTNNYFTSVPKNFMELLTNQEKQQWVSGWRLNADSVLWGGHKVFMVKPEEPFQPVKEATQL [A196K]	0.103	0.0709	0.0126	0.0576	0.0617	0.149	0.0564	0.101	0.0711	0.0725		0.0347	0.0752	0.0894	0.0934	0.0899	0.0648	0.0978	
MGESLFKGPRDYNPISSSICHLTNESDGHTTSLYGIGFGPFIITNKHLFRRNNGTLVVQSLHGVFKVKDTTTLQQHLVDGRDMIIIRMPKDFPPFPQKLKFREPQREERICLQTTNFQTKSMSSMVSDTSCTFPSGDGIFWKHWIQTKDGQCGSPLVSTRDGFIVGIHSASNFTNTNNYFTSVPKNFMELLTNQEAQQWVSGWRLNADSVLWGGHKVFMVKPEEPFQPVKEATQL [V113Q]	0.0597	0.0554	0.072		0.0605		0.0343	0.0544	0.0585	0.0696	0.0593			0.0655	0.0633		0.0631	0.0643	
MGESLFKGPRDYNPISSSICHLTNESDGHTTSLYGIGFGPFIITNKPLFRRNNGTLVVQSLHGVFKVKDTTTLQQHLVDGRDMIIIRMPKDFPPFPQKLKFREPQREERICLVTTNFQTKSMSSMVSDTSCTFPSGDGIFWKHWIQTKDGQCGSPLVSTRDGFIVGIHSASNFTNTNNYFTSVPKNFMELLTNQEAQQWVSGWRLNADSVLWGGHKVFMVKPEEPFQPVKEATQL [H47P]	0.0648	0.0641	0.0448	0.0514	0.0751		0.0615	0.0518	0.0526	0.059			0.0406		0.0725		0.0616	0.0727	0.0748
MGESLFKGPRDYNPISSSICHLTNESDGHTTSLYGIGFGPFIITNKHLFRRNNGTLVVQSLHGVFKVKDTTTLQQHLVDGRDMIIWRMPKDFPPFPQKLKFREPQREERICLVTTNFQTKSMSSMVSDTSCTFPSGDGIFWKHWIQTKDGQCGSPLVSTRDGFIVGIHSASNFTNTNNYFTSVPKNFMELLTNQEAQQWVSGWRLNADSVLWGGHKVFMVKPEEPFQPVKEATQL [I86W]	0.0545		0.0597	0.073	0.0675	0.0661	0.0478	0.0713	0.0533		0.0621	0.0566	0.0543	0.0641	0.0709	0.0554	0.0634		
MGESLFKGPRDYNPISSSICHLTNESDGHTTSLYGIGFGPFIITNKHLFRRNNGTLVVQSLHGVFKVKDTTTLQQHLVDGRDMIIIRMPKDFPPFPQKLKFREPQREERICLVTTNFQTKSMSFMVSDTSCTFPSGDGIFWKHWIQTKDGQCGSPLVSTRDGFIVGIHSASNFTNTNNYFTSVPKNFMELLTNQEAQQWVSGWRLNADSVLWGGHKVFMVKPEEPFQPVKEATQL [S124F]	0.0626		0.0695	0.0566	0.0516	0.0998	0.0595		0.0688	0.0653	0.0468		0.0671	0.0651	0.113	0.0693	0.06	0.0668	0.0853
MGESLFKGPRDYNPISSSICHLTNESDGHTNSLYGIGFGPFIITNKHLFRRNNGTLVVQSLHGVFKVKDTTTLQQHLVDGRDMIIIRMPKDFPPFPQKLKFREPQREERICLVTTNFQTKSMSSMVSDTSCTFPSGDGIFWKHWIQTKDGQCGSPLVSTRDGFIVGIHSASNFTNTNNYFTSVPKNFMELLTNQEAQQWVSGWRLNADSVLWGGHKVFMVKPEEPFQPVKEATQL [T31N]	0.0912	0.0742	0.0586	0.0658	0.08	0.106	0.0581	0.0815	0.0704	0.0664	0.0697	0.063	0.0634	0.068	0.0961	0.0539	0.0753	0.0809	0.0846
